Experimental data taken from ChEMBL document CHEMBL4888484, “Replenishing the malaria drug discovery pipeline: Screening and hit evaluation of the MMV Hit Generation Library 1 (HGL1) against asexual blood stage Plasmodium falciparum ,using a nano luciferase reporter read-out” (2022).
Among all 150,000 compounds or so, about 540 (0.36%) showed an effect of 50% or more. The list shows a part of the results.

What follows are compounds tested on Plasmodium falciparum (assay: Primary screen in NF54 nanoGlo assay, in single point, at 2uM, 72h; a lower Z score goes with more inhibition). Details: timepoint 72 hour.
Assay type: functional, Erythrocyte

Row | Structure (SMILES) | % Inhibition [%] | Z score
1 | CC(C)(C)n1c(=O)c2ccc(F)cc2n1CC(=O)Nc1ccc(Cl)cc1 | -3 | 0.4
2 | Cc1ccc(NC(=O)N2CCC(C(=O)C3CC3)CC2)c(C)c1 | -2 | 0.28
3 | CC[C@H](NCc1cc(C)c(OC(C)=O)c(C)c1)c1nc(C)no1 | -3 | 0.41
4 | O=C1N[C@H]2C[C@@H](C(=O)NC[C@H]3O[C@H](CCOc4cc(-c5ccccc5)ccc41)CC[C@@H]3O)N(C1CCOCC1)C2 | 35 | -3.98
5 | COc1ccc(-c2noc(-c3nnn4c3CO[C@H](c3ccc(C)cc3C)C4)n2)cc1 | -16 | 1.51
6 | Cc1nc[nH]c1CN1C[C@H]2CC[C@@H](C1)N(C(=O)CCc1cccnc1)C2 | 8 | -1.68
7 | O=C1CC[C@@]2(CCCO2)CCN1Cc1ccc(-c2ccccc2)cc1 | -3 | 0.62
8 | CC(C)(CC(=O)O)CC(=O)N1C2CCC1CC(O)(Cc1ccc(F)cc1F)C2 (centres undefined) | -1 | 0.18
9 | Cc1noc2ncc(NC(=O)c3ccc([C@H]4CCCOC4)cc3)cc12 | -7 | 0.96
10 | CCNc1ncc(C(=O)N(C)CCc2ncc(C)s2)s1 | -11 | 2.14
11 | COCCn1c(=O)c(CNCc2ccccc2OC)cc2ccc(F)cc21 | 0 | -0.03
12 | CNC(=O)[C@@H]1C[C@@H](NCc2cccc(C(F)(F)F)c2)CN1CC(C)C | 13 | -1.75
13 | COc1ccc(-c2ccc(CNC(=O)N3CCNC(=O)C3)s2)cc1 | 1 | -0.13
14 | CCOc1cc(CN2CCN3C(=O)N(CC)C(=O)[C@@H]3C2)ccc1OC | -17 | 1.89
15 | Cc1ccccc1Oc1nc(N(C)Cc2ccccc2)nc2c1CN(C(=O)c1ccccc1)CC2 | 3 | -0.44
16 | CCCCC(=O)Nc1ccc(NC(=O)C2(C)CCCC2)cc1Cl | -21 | 2.35
17 | O=C(Nc1nncs1)[C@H]1CCCN(S(=O)(=O)c2ccc(F)c(Cl)c2)C1 | 10 | -1.41
18 | CCOc1ccc(CNC(=O)c2ccc(-c3c(-c4ccc(C)cc4)ncn3C3CCCC3)o2)cc1 | -6 | 0.96
19 | COc1cccc(-c2nnc(NCc3ccc(C)o3)o2)c1OC | 33 | -3.67
20 | C[C@@](CC(=O)O)(NC(=O)Cc1ccon1)c1ccc(F)cc1 | -8 | 1
21 | CC1CC(NC(=O)[C@H]2OC[C@H]3COCC[C@H]32)=NN1Cc1ccccc1 (some centres undefined) | 0 | -0.03
22 | CCOC(=O)N1CCN(C(=O)[C@H]2CCCN(c3cc4c(nn3)CCC4)C2)CC1 | -1 | 0.16
23 | Nc1noc(CCNC(=O)c2cnn(Cc3ccccc3)c2)n1 | -10 | 1.08
24 | Cc1sc2ncnc(NC[C@H](C)Cn3cccn3)c2c1C | -17 | 2.24
25 | C[C@@H](c1cccs1)N(C)C(=O)c1ccccc1-n1cnnc1 | -5 | 0.89
26 | CC(C)c1nc(C(=O)Nc2[nH]nc(C3CC3)c2C#N)cs1 | -25 | 3.79

Row | Structure (SMILES) | % Inhibition [%] | Z score
27 | Cc1csc(C(=O)N2CC[C@H](OC(=O)N(C)C)C2)c1Cl | -4 | 0.59
28 | O=C1CN(C(=O)c2ccccc2)S(=O)(=O)c2ccccc21 | -32 | 3.8
29 | Cc1nc(C(=O)N2CC3C(C2)C3(C)C)c(=O)[nH]c1C (centres undefined) | -11 | 2.02
30 | CC(=O)N1CCN(C(=O)CC(=O)N2CCn3cccc3[C@H]2c2cccc(Cl)c2)CC1 | 0 | 0.05
31 | CCN(CC)C[C@H](O)COc1cc(CNC2(c3ccccc3)CC2)ccc1OC | -4 | 0.58
32 | CC(C)(C)NS(=O)(=O)c1ccc2c(c1)C(C)(C)CN2CC(=O)N1CCCC1 | -11 | 1.21
33 | CC(=O)N1CCO[C@@H](Cn2ccnc2-c2ccc(-c3ccccc3Cl)o2)C1 | 11 | -2.11
34 | CN(CCCOCc1ccccc1)c1ccc(C#N)nn1 | -10 | 1.39
35 | COc1ccc(S(=O)(=O)Nc2nc3ncccn3n2)cc1Cl | -1 | 0.09
36 | Cc1ccc(NC(=O)NC2CCN(c3ccccc3C(=O)NCCN3CCCCC3)CC2)cc1 | 1 | -0.2
37 | Cc1nn(C)c2nc(C(=O)Nc3ccc(C(F)(F)F)cc3)cc(C3CC3)c12 | 8 | -1.03
38 | CC(C)(C)n1nnc(COc2ccc([C@@H]3CCC(=O)N3)cc2)n1 | -3 | 0.44
39 | N#Cc1ccc(F)c(CN2CCN(C(=O)CN3CCOCC3)CC2)c1 | -18 | 2.37
40 | c1ccc2nc(NCCc3nnc(C4CCOCC4)[nH]3)cnc2c1 | 7 | -0.77
41 | O=C1CC[C@@]2(CCCN(c3ncnc4ccsc34)C2)CN1Cc1cccnc1 | 12 | -1.41
42 | COc1cccc(C[C@@H]2CC[C@H](CN(C)C3CCN(C)CC3)O2)c1 | -10 | 0.92
43 | COc1ccccc1N1CCN(CN2C(=O)C(=O)c3ccccc32)CC1 | -29 | 3.37
44 | Cc1ccsc1C(=O)NC[C@H]1CCCO1 | -5 | 0.94
45 | Cc1ccnc(N2CCC(Oc3cccc(C#N)c3)CC2)c1C#N | -1 | 0.15
46 | CC(C)Cc1cc(NS(=O)(=O)c2cnn3ccccc23)[nH]n1 | 5 | -0.89
47 | CN1CCC[C@@]2(CCN(C(=O)c3cn(C)c4ccccc34)C2)C1 | -4 | 0.65
48 | CN1CCC(N2CCOC[C@H]2c2nc(-c3cccc(Cl)c3)c[nH]2)CC1 | 5 | -0.69
49 | Cc1nn(C)cc1Cn1ccnc1-c1ccc(-c2cc[nH]n2)s1 | -54 | 4.79
50 | CCc1nc(C)c(-c2nc(C3CCOCC3)nn2-c2nc(C)c(C)s2)o1 | 0 | 0.04
51 | CC(C)c1ccoc1C(=O)N1CCC[C@@H]1CC(=O)O | 10 | -1.42
52 | Cc1cnccc1CN(C)C(=O)c1cc(C)c(C)nc1O | 6 | -0.86
